According to PubChem BioAssay AID1347165 (National Center for Advancing Translational Sciences (NCATS), 2019):
Hit rate of the full screen: of about 220,000 compounds, about 5,700 (2.6%) were called active. This list was built around the results that the source calls inconclusive (neither active nor inactive); the mix of calls is not that of the screen. Calls follow the shape of the dose curve; as a rule, active = well fitted inhibition curve with a large enough effect; inconclusive = small, poorly fitted or top-dose-only effect; inactive = no such curve, though single readings can be large or run the other way. A potency beside an inconclusive call is a rough fit, not a confirmed value.
Also: nearly all actives have a fitted effect of over 70% in size.
For activity change, negative = inhibition in this document: 0% is about no effect.
Potency is read from the fitted curve at half-maximal effect; tags tell the direction and shape of the fitted curve.

What follows are compounds tested against Lysine-specific demethylase 5B (Homo sapiens) (UniProt Q9UGL1) (assay: Primary screen for KDM5B Histone Demethylases FDH-coupled qHTS). Details: FDH-coupled NADH fluorescence (FDH is formaldehyde dehydrogenase); activity change, negative = inhibition: at 57.7 µM (top of the series) unless noted.
Sequence of UniProt Q9UGL1 (Q9UGL1 whole entry, looked up): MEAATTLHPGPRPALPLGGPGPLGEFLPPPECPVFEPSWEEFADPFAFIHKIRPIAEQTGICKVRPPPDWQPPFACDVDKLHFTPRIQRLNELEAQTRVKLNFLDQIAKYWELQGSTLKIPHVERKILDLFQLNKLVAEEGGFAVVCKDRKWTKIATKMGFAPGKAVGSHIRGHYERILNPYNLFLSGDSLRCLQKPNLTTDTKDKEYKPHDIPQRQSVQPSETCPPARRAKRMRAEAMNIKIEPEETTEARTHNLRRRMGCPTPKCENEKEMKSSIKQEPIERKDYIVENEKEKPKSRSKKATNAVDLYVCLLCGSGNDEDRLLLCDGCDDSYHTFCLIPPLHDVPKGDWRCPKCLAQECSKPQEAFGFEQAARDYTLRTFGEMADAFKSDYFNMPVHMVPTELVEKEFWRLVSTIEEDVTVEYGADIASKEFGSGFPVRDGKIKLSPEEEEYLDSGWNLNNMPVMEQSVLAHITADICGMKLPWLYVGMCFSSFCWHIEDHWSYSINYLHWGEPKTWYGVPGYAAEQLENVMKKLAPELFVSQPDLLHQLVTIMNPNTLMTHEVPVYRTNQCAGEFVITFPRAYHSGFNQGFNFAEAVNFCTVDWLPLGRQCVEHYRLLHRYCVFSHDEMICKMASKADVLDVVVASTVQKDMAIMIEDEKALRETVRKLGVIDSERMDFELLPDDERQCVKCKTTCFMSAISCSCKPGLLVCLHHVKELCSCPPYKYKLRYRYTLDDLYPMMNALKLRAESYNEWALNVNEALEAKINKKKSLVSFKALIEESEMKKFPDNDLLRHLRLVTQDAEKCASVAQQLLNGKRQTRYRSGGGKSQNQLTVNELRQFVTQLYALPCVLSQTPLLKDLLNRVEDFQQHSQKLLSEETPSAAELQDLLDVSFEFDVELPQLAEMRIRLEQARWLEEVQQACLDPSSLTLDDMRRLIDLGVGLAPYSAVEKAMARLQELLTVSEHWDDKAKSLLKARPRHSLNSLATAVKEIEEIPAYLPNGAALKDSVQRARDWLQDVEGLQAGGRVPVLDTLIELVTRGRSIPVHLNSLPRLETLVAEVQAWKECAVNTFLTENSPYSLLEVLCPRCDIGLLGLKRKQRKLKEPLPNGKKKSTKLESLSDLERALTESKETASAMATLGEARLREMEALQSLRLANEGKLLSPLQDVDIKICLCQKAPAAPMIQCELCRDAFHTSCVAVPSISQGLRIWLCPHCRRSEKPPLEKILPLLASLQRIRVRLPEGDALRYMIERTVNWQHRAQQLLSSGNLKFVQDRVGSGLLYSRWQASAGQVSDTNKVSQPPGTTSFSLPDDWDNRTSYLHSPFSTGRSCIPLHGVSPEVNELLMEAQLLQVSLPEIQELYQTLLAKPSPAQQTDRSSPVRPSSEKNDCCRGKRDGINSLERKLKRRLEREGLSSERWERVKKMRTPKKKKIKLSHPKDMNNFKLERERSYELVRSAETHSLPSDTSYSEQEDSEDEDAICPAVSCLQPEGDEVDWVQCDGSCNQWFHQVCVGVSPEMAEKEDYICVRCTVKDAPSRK
How it was run: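 Measured: NADH fluorescence change, 30 min, RT. System: KDM5BΔAP 200 nM final, H3K4me3 peptide, α-KG, Fe(II), ascorbate, NAD⁺ plus FDH, pH 7.5 HEPES. Compounds: titrated, 10 min pre-incubation with enzyme.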
For CCOc1ccccc1CN1CCC2(CCN(C(C)=O)CC2)Oc2ccccc21, the Potency was inconclusive: 14.1 µM [inhibitor, partial curve]. For O=C(Cn1ccn2nc(-c3ccc(F)cc3)c(CO)c2c1=O)Nc1ccccc1, the Potency was inconclusive: 28.2 µM [inhibitor, single point]. With CC(C)c1ccc(S(=O)(=O)NCCc2cccc3cccnc23)cc1 the “activity change, negative = inhibition” value was inactive: -12.9%. CCn1nc(C(=O)Nc2nc(-c3ccc(NC(C)=O)cc3)cs2)c2ccccc2c1=O was tested, and the “activity change, negative = inhibition” value was inactive: -8.97%. For Cc1ccc(C)c(NC(=O)c2ccc(=O)n(Cc3ccc(F)cc3)c2)c1, the Potency was inconclusive: 15.8 µM [inhibitor, partial curve, poor fit]. With COc1cc(C)ccc1OCCSc1nc2ccc(NC(=O)c3ccc4c(c3)OCO4)cc2s1 the Potency was inconclusive: 0.891 µM [inhibitor, full curve, poor fit]. With C=CCNC(=S)/N=c1/ccccn1C the Potency was inconclusive: 20 µM [inhibitor, partial curve, poor fit]. With CCOC(=O)c1cc(-c2ccccc2)n(CCC(=O)Nc2ccc(OC)c(Cl)c2)c1C the Potency was inconclusive: 2.51 µM [inhibitor, partial curve, poor fit]. Cc1ccc(N/N=C/c2ccc(F)c(F)c2)cc1Cl was tested, and the “activity change, negative = inhibition” value was inactive: -29.9%. With O=C1CC(c2ccccc2)N(C(=O)CNC(=O)c2c[nH]c3ccccc23)CCCCCN1 (stereo not drawn) the Potency was active: 28.2 µM. COc1cc(NC(=O)COc2ccc3c(C)c(C)c(=O)oc3c2)cc(OC)c1 was tested, and the Potency was inconclusive: 1.78 µM [inhibitor, full curve, poor fit]. For COc1cccc(CNC(=O)Cn2c(N3CCc4ccccc4C3)nc(C)cc2=O)c1, the Potency was active: 35.5 µM. For COc1ccc(-c2cc(N3CCCN(C(=O)Cc4ccccc4Br)CC3)n[nH]2)cc1, the Potency was inconclusive: 12.6 µM [inhibitor, partial curve]. With CN(CC(=O)Nc1ccccc1Cl)CC(=O)N(CCC#N)c1ccccc1 the Potency was inconclusive: 35.5 µM [inhibitor, single point]. For COc1ccc2[nH]cc(CCNC(=O)Nc3c(C)cccc3C)c2c1, the Potency was inconclusive: 17.8 µM [inhibitor, partial curve, poor fit]. Cc1ccc(NC(=O)CSc2ncccc2C(=O)Oc2ccccc2Cl)cc1Cl was tested, and the Potency was inconclusive: 22.4 µM [inhibitor, single point]. For CCc1c(C)sc(NC(=O)C2CC2c2ccccc2)c1C#N (stereo not drawn), the “activity change, negative = inhibition” value was inactive: 10.2%. In the case of CCC(C)(CNC(=O)c1cc(-c2ccccc2)on1)N1CCOCC1 (stereo not drawn), the “activity change, negative = inhibition” value is reported as inactive: 20%. In the case of O=C1CC2CCCC(C1)N2C(=O)c1cccc2[nH]ccc12, the Potency is reported as active: 35.5 µM. For Cc1oc(-c2nc(C#N)c(NC(C)c3ccccc3)o2)cc1S(=O)(=O)N1CCCC1 (stereo not drawn), the Potency was inconclusive: 1.78 µM [inhibitor, partial curve, poor fit]. For O=C(CC(NC(=O)c1ccccc1)c1ccccc1)NCc1cccs1 (stereo not drawn), the “activity change, negative = inhibition” value was inactive: 16.9%. For COc1ccccc1-c1nc(C(=O)NC(C)C)n2ccncc12, the Potency was active: 39.8 µM. With CC(C)OCCCNC(=O)c1ccc(Cn2ccn3nc4c(c3c2=O)CCCC4)cc1 the “activity change, negative = inhibition” value was inactive: -26.7%. In the case of C[C@H]1[C@@H]2[C@H]3OC(=O)[C@@H](C)[C@@H]3CC[C@@]2(C)CC[C@@H]1NC(=O)c1ccc(C#N)cc1, the “activity change, negative = inhibition” value is reported as inactive: -8.82% [at 86.2 µM]. For CCOc1ccccc1Oc1c(C(F)(F)F)oc2cc(OC(=O)c3ccc(C)cc3)ccc2c1=O, the “activity change, negative = inhibition” value was inactive: 12.2%. O=C(CSc1ncc(-c2ccc(Br)cc2)o1)NC1CCCCC1 was tested, and the “activity change, negative = inhibition” value was inactive: 9.03%. In the case of Cc1cccc(NC(=O)C(=O)NCC(c2cccnc2)N2CCc3ccccc32)c1C (stereo not drawn), the Potency is reported as inconclusive: 39.8 µM [inhibitor, single point]. O=C(Cn1cc(S(=O)(=O)c2ccc(F)cc2)c(=O)c2cc3c(cc21)OCO3)Nc1ccccc1 was tested, and the Potency was inconclusive: 4.47 µM [inhibitor, full curve, poor fit]. In the case of Cc1ccccc1CNC(=O)c1nccnc1N, the Potency is reported as inconclusive: 28.2 µM [inhibitor, partial curve, poor fit]. For O=C(Cc1cccc(F)c1)N1CCC2(CC1)N=C(c1ccc(Cl)cc1)NO2, the Potency was inconclusive: 31.6 µM [inhibitor, partial curve, poor fit]. In the case of COc1ccc(-c2cc(C(=O)NC3CCN(C(C)C)CC3)c3ccccc3n2)cc1OC, the “activity change, negative = inhibition” value is reported as inactive: -29.4%. In the case of CCOc1ccc(CN2CCN(S(=O)(=O)c3ccc(Cl)cc3)CC2)cc1, the Potency is reported as inconclusive: 15.8 µM [inhibitor, partial curve, poor fit]. For OC1CN(Cc2ccc(-c3cnc4c(OCc5ccccc5)nccn34)cc2)C1, the Potency was active: 31.6 µM. C=CCCC(CN1CCSCC1)Oc1nccc(C)n1 (stereo not drawn) was tested, and the “activity change, negative = inhibition” value was inactive: -11.1%. With COc1ccc(C2Cn3nnc(-c4noc(-c5ccc(Cl)cc5OC)n4)c3CO2)cc1 (stereo not drawn) the Potency was inconclusive: 22.4 µM [inhibitor, partial curve, poor fit]. For COC(=O)Cc1c(C)c2ccc(OCc3ccc(F)cc3)cc2oc1=O, the Potency was inconclusive: 35.5 µM [inhibitor, partial curve, poor fit]. For COc1ccc(C(C(=O)O)N2CCCN(c3ncccn3)CC2)c(OC)n1 (stereo not drawn), the Potency was inconclusive: 22.4 µM [inhibitor, single point]. In the case of COCc1ccc2c(c1)c(OC(C)(C)C(=O)NCCCN1CCCC1=O)nn2CCC(C)C, the Potency is reported as inconclusive: 28.2 µM [inhibitor, partial curve, poor fit]. CN(CC(=O)NCc1ccco1)C(=O)c1ccc(S(=O)(=O)Nc2ccccc2)cc1 was tested, and the “activity change, negative = inhibition” value was inactive: 5.72%. O=c1oc2c(F)cc(F)cc2cc1S(=O)(=O)c1ccc(F)cc1 was tested, and the Potency was inconclusive: 31.6 µM [inhibitor, partial curve, poor fit]. For O=C(NCc1ccccc1Cl)c1ccccc1-c1ccccc1, the “activity change, negative = inhibition” value was inactive: -15%. With CCOC(=O)C1CCN(C(=O)c2[nH]c3ccc(OC)cc3c2C)CC1 the Potency was inconclusive: 39.8 µM [inhibitor, single point]. For COc1cc(F)ccc1-c1cc(C(=O)NCc2c(C)cc(C)[nH]c2=O)c2c(c1)ncn2C, the Potency was inconclusive: 35.5 µM [inhibitor, single point]. With Cc1ccc(Cc2nc3ccccc3nc2SCC(=O)N2CCCCC2)cc1 the Potency was inconclusive: 35.5 µM [inhibitor, single point]. Cc1ccc(-c2ocnc2C(=O)Nc2ccccc2NC(=O)c2ccccn2)cc1 was tested, and the Potency was inconclusive: 39.8 µM [inhibitor, single point]. With O=C(O)CCc1c(O)ccc2ccccc12 the Potency was inconclusive: 28.2 µM [inhibitor, partial curve, poor fit]. Cc1ccc(NC(=O)c2ccc3c(c2)N(C)C2CCCCN2C3=O)cc1Cl (stereo not drawn) was tested, and the Potency was inconclusive: 28.2 µM [inhibitor, partial curve, poor fit]. In the case of Cc1cc(CNc2ccc(-c3nc(CCCc4ccccc4)no3)cn2)no1, the Potency is reported as active: 28.2 µM. CCN(CC(=O)Nc1c(F)cccc1F)C(=O)c1cccnc1SC was tested, and the “activity change, negative = inhibition” value was inactive: 16.2%. With CN1CCN(C(=O)c2ccc(CNC(=O)c3cc(=O)[nH]c4ccccc34)cc2)CC1 the Potency was inconclusive: 39.8 µM [inhibitor, single point]. In the case of CCc1nc(NC2CCCC2)ncc1C(=O)O, the Potency is reported as inconclusive: 31.6 µM [inhibitor, partial curve, poor fit]. With CCn1nc(C(=O)Nc2ccc(Cl)cc2C)c2ccccc2c1=O the “activity change, negative = inhibition” value was inactive: 11.6%. In the case of COC(=O)c1cc2oc(C)cc2n1Cc1cccc(Cl)c1, the Potency is reported as inconclusive: 28.2 µM [inhibitor, single point]. For Cc1ccc(-n2c(=O)c3c(c4cc(C)ccc4n3C)n(CC(=O)NCCC3=CCCCC3)c2=O)cc1, the Potency was inconclusive: 15.8 µM [inhibitor, partial curve, poor fit]. For O=c1c2oc3ccccc3c2n(Cc2cccc(Cl)c2)c(=O)n1Cc1ccc2c(c1)OCO2, the Potency was inconclusive: 22.4 µM [inhibitor, partial curve, poor fit]. In the case of CCN1CCN(c2ccc(C(=O)NCCCc3ccc(OC)cc3)cn2)CC1, the Potency is reported as inconclusive: 39.8 µM [inhibitor, single point]. With Cc1cc(CN(C)C(=O)C2CCCN(C3CCN(Cc4ccncc4)CC3)C2)n[nH]1 (stereo not drawn) the Potency was inconclusive: 17.8 µM [inhibitor, single point]. CCc1c(C)sc(NC(=O)Cc2ccccc2C)c1C#N was tested, and the “activity change, negative = inhibition” value was inactive: 24.3%. In the case of CC(=O)NCC(=O)N1Cc2ccccc2CC2(CCN(C)C2)C1 (stereo not drawn), the “activity change, negative = inhibition” value is reported as inactive: -8.97% [at 149 µM]. In the case of Fc1ccc2nc([C@H]3CCN(Cc4ncc[nH]4)C3)[nH]c2c1, the Potency is reported as active: 28.2 µM. COC(=O)c1sc2cccc(F)c2c1S(=O)(=O)N1CCN(c2cc(C)ccc2C)CC1 was tested, and the “activity change, negative = inhibition” value was inactive: -16.1%. CC(c1ccc(F)cc1)N1Cc2cc(NC(=O)c3cccs3)ccc2OCC1=O (stereo not drawn) was tested, and the Potency was inconclusive: 39.8 µM [inhibitor, single point]. CCOc1ccc(C=Nc2ccc(N(C)C)cc2)cc1 was tested, and the Potency was inconclusive: 8.91 µM [inhibitor, partial curve, poor fit]. In the case of N#Cc1ccc(/C=N/Nc2cccc(Cl)c2)cc1, the Potency is reported as inconclusive: 39.8 µM [inhibitor, partial curve, poor fit]. In the case of Cc1cc(OCc2nn[nH]n2)c2c(C)cc(=O)oc2c1, the Potency is reported as inconclusive: 28.2 µM [inhibitor, partial curve, poor fit]. In the case of Cc1c(-c2ccccc2)oc2c(C(=O)Nc3ccc(C(N)=O)cc3)cccc2c1=O, the “activity change, negative = inhibition” value is reported as inactive: 24.7%. For COC(=O)/C=C/c1c(C)nc(NCc2ccccc2)nc1Cl, the Potency was inconclusive: 31.6 µM [inhibitor, partial curve, poor fit]. In the case of CC(C)N(C(=O)COC(=O)c1cccc(N(C)C)c1)c1ccccc1, the Potency is reported as inconclusive: 35.5 µM [inhibitor, single point].
